Laboratory results taken from patent US10004812B2 (priority 2014, dated 2018).

How the values were obtained:
[1] = Melting point by dynamic light scattering (zetasizer nano); type: physicochemical; details: thermal stability
Procedure: (§1) Purified proteins A5-IgG and mE12-IgG were characterized by SDS-PAGE and size exclusion chromatography. Bioactivity was analyzed by ELISA, using recombinant mouse/human ENG and detection of bound antibodies with HRP-conjugated anti-human IgG antibodies. Cell binding was analyzed by flow cytometry, using ENG-positive HT1080 and ENG expressing mouse eEnd2. Melting points were determined by dynamic light scattering using a zetasizer nano. Affinities were determined by QCM using an Attana A100. Internalization study was performed by indirect immunofluorescence confocal microscopy on permeabilized cells, detecting bound and internalized antibodies with a FITC-labeled secondary antibody.

recombinant mouse ENG = biological target: T1, recombinant mouse ENG (Mus musculus, UniProt Q63961); experiment: ELISA binding to recombinant mouse ENG (aa 27-581); details: not to negative control (BSA); FIG. 1
T1 sequence (Q63961 whole entry, looked up): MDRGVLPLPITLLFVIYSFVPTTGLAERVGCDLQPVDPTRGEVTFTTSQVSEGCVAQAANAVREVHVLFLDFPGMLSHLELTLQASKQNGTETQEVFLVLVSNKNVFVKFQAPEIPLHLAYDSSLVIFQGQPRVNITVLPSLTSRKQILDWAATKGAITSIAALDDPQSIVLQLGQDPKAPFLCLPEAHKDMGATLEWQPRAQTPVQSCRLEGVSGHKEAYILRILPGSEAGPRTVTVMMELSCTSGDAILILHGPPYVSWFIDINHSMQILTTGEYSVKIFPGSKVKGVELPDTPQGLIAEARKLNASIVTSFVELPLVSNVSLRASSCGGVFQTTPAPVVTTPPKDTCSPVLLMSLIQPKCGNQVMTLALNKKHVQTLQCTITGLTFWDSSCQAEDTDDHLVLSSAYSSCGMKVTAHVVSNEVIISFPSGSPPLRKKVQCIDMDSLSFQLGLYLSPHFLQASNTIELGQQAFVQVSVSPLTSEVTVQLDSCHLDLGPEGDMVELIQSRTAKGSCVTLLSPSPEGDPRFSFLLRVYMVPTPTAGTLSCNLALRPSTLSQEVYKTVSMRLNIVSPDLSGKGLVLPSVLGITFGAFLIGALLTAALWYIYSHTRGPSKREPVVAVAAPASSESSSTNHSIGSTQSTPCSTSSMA
Procedure: Plasmids corresponding to full length IgG1 antibodies were generated and transfected into CHO cells for production of antibodies in Lonza's CHO expressing system with yields of approximately 1 mg/L of cell culture (lab scale). Antibodies were purified from cell culture supernatant by protein A chromatography. Purified proteins were characterized by SDS-PAGE and size exclusion chromatography. Bioactivity was analyzed by ELISA using recombinant ENG and detection of bound antibodies with HRP-conjugated anti-human IgG antibodies. Cell binding was analyzed by flow cytometry using ENG-expressing mouse B16 cell.
Purified anti-muENG mE12 and anti-huENG A5 antibodies were analyzed in ELISA for binding to recombinant ENG and using flow cytometry analysis (FACS).
as §1, with “Internalization study was performed by indirect immunofluorescence confocal microscopy on permeabilized cells, detecting bound and internalized antibodies with a FITC-labeled secondary antibody.” left out

B1: mE12-IgG1: human anti-murine Endoglin IgG1; heavy chain SEQ ID NO: 15, light chain SEQ ID NO: 16 (antibody)
heavy: EVQLVESGGGVVQPGRSLRLSCAASGFTFSSYGMHWVRQAPGKGLVWVSRINSDGSSTSYADSVKGRFTISRDNSKNTLYLQMNSLRAEDTAVYYCARATGTWVMSWGQGTLVTVSSASTKGPSVFPLAPSSKSTSGGTAALGCLVKDYFPEPVTVSWNSGALTSGVHTFPAVLQSSGLYSLSSVVTVPSSSLGTQTYICNVNHKPSNTKVDKKVEPKSCDKTHTCPPCPAPPVAGPSVFLFPPKPKDTLMISRTPEVTCVVVDVSHEDPEVKFNWYVDGVEVHNAKTKPREEQYNSTYRVVSVLTVLHQDWLNGKEYKCKVSNKGLPSSIEKTISKAKGQPREPQVYTLPPSRDELTKNQVSLTCLVKGFYPSDIAVEWESNGQPENNYKTTPPVLDSDGSFFLYSKLTVDKSRWQQGNVFSCSVMHEALHNHYTQKSLSLSPGK
light: SSELIQDPAVSVALGQTVRITCQGDSLRSYYASWYQQKPGQAPVLVIYGKNNRPSGIPDRFSGSSSGNTASLTITGAQAEDEADYYCNSRDSSGTVFGGGTKLTVLGQPKANPTVTLFPPSSEELQANKATLVCLISDFYPGAVTVAWKADGSPVKAGVETTKPSKQSNNKYAASSYLSLTPEQWKSHRSYSCQVTHEGSTVEKTVAPTECS
modifications: Synthetic sequence mE12-IgG1-HC - without signal sequence; Synthetic sequence mE12-IgG1-LC - without signal sequence
Tm (DLS) [1]: 64 °C
binding to recombinant mouse ENG (ELISA), in words (recombinant mouse ENG): concentration-dependent binding
